Experimental data reported in paper PMC4336329 (PLoS ONE, 2015).
The campaign covered roughly 310,000 compounds. About 2,200 (0.71%) showed an effect of 50% or more. The effect is printed as a negative number. This is one part of the list.

biological target: human ether-à-go-go-related gene (hERG) potassium channel (human, UniProt Q12809); assay: primary screen, population patch clamp on CHO cells stably expressing hERG
Sequence (Q12809 whole entry, looked up): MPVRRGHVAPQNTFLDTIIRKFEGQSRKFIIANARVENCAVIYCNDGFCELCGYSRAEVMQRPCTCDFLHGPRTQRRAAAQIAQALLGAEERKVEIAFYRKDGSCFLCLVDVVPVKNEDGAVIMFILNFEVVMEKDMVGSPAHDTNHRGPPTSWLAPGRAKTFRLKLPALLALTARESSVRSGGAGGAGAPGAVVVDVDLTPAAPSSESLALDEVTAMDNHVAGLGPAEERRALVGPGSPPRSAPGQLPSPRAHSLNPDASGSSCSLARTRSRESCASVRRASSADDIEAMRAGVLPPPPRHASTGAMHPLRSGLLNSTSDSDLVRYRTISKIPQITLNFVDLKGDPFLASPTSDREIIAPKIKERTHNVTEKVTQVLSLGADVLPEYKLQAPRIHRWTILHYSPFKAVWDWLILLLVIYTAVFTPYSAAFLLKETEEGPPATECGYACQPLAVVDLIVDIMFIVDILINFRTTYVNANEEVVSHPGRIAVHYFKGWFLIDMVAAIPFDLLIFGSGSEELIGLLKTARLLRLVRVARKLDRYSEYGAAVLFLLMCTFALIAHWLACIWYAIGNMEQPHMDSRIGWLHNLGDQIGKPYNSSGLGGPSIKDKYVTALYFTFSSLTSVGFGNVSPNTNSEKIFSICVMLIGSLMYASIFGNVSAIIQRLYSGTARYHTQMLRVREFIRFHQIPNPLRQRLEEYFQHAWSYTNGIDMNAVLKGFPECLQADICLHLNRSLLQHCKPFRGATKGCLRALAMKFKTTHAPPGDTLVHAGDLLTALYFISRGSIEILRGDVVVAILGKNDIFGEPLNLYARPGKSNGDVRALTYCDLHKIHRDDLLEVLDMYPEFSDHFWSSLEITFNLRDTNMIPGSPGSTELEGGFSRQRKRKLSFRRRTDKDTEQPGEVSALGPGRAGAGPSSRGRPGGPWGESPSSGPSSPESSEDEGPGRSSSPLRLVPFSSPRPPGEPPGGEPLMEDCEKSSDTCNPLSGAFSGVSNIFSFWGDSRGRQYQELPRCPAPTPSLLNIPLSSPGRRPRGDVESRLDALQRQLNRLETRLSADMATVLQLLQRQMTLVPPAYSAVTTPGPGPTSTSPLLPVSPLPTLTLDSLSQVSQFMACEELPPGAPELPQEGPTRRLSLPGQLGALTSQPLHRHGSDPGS

Row | Structure (SMILES) | hERG current change (%, negative = inhibition) at 1uM [%]
1 | CCCN1Cc2cccc(C(=O)Nc3cc(OC)cc(OC)c3)c2C1=O | 1.76
2 | CCOc1nc2c(c(=O)n(C)c(=O)n2C)n1Cc1ccccc1Cl | -1.41
3 | COCc1ccc(C(=O)NC2CCCc3c2cnn3-c2ccc(C)c(C)c2)o1 (stereo not shown) | 0.936
4 | CCOc1ccc(NC(=O)COC(=O)c2cccnc2)cc1 | 14.5
5 | CC(=O)c1cn(S(=O)(=O)c2ccccc2)c2ccccc12 | 7.31
6 | Cc1cc(OCC(=O)Nc2ccc3c(c2)OCCO3)ccc1Cl | 11.9
7 | N/C(=N\OC(=O)Cc1ccc(Cl)cc1)c1ccncc1 | 4.51
8 | c1ccc(-c2nc3nonc3c3nc4ccccc4n23)cc1 | -1.03
9 | O=C(OCC(=O)c1c[nH]c2ccccc12)c1cc(Br)ccc1O | 8.79
10 | Cc1cccc(NC(=O)c2cccc(S(=O)(=O)N(C)c3ccccc3)c2)n1 | -0.556
11 | CSc1ccc(CNc2ncc(-c3cccc([N+](=O)[O-])c3)n2C)cc1.O=C(O)C(=O)O | -26.5
12 | COc1ccc2oc(C(=O)OCC(=O)NC3CCCCC3)c(C)c2c1 | 0.968
13 | COc1ccccc1C(=O)NC(=O)CSc1nncn1C | 18.2
14 | O=C(CCC1CCCC1)N1CCN(S(=O)(=O)c2ccc(Br)cc2)CC1 | 9.73
15 | CC(C)CC(C(=O)NCC1CCCO1)N(C(=O)Cn1nnc(-c2ccc(F)cc2)n1)c1cccc(C(F)(F)F)c1 (stereo not shown) | 11.7
16 | CC(C)(C)OC(=O)N1CCC2(CC1)Oc1ccc(F)cc1C(=O)C21CC(c2cccnc2)=NO1 (stereo not shown) | 15.8
17 | CN(Cc1nc(-c2cnccn2)no1)Cc1cccc2ccccc12 | 7.66
18 | COc1ccc(-c2[nH]ncc2/C=N/NC(=O)c2ccc(Br)cc2)c(OC)c1 | 4.05
19 | CCCc1nc(SCC(=O)N2CCCC2)c2c(=O)n(C)c(=O)n(C)c2n1 | 2.37
20 | COc1ccc(C2N(C(=O)CN3CCCC3)CCCN2S(=O)(=O)c2ccccc2)cc1 (stereo not shown) | 4.43
21 | COc1ccc(C(=O)Nc2ccccc2C(=O)N/N=C/c2cccc3ccccc23)cc1 | 21.1
22 | COc1cc(/C=C/C(=O)O)cc(S(=O)(=O)NCCO)c1OC | 5.69

Row | Structure (SMILES) | hERG current change (%, negative = inhibition) at 1uM [%]
23 | COC(=O)c1ccc(NC(=O)CCNS(=O)(=O)c2cccc3nonc23)cc1 | 8.69
24 | O=C1CSC(=S)N1N=C1CCCCCC1 | 8.32
25 | O=C(O)c1ccc(NC(=O)c2cccc(S(=O)(=O)Nc3ccc(C(=O)O)cc3)c2)cc1 | 20.4
26 | CCOC(=O)/C=c1\s/c(=C(\C#N)C(=O)OCC)n(-c2ccccc2)c1=O | 4.49
27 | CC(C)N(Cc1nc(-c2ccccc2)no1)C(=O)c1ccc(Br)o1 | 13.9
28 | CCC(Sc1ncccc1C(=O)Oc1cccc([N+](=O)[O-])c1)C(=O)Nc1ccccc1OC (stereo not shown) | 7.33
29 | CCOC(=O)CC1C(=O)NCCN1C(=S)Nc1ccccc1 (stereo not shown) | 15.4
30 | CC(C)CNS(=O)(=O)c1cc2c3c(c1)CCC(=O)N3CCC2 | 3.9
31 | Cc1ccc(C(=O)C(NC(=O)c2ccco2)Nc2sc3c(c2C(N)=O)CCCC3)cc1 (stereo not shown) | 15.9
32 | COCC(COS(N)(=O)=O)Cc1ccccc1 (stereo not shown) | 7.86
33 | CN1CCN(C(=O)CN(Cc2ccccc2)S(C)(=O)=O)CC1 | 18.4
34 | O=C(COc1ccc(Cl)cc1)Nc1cc2c3c(c1)CC(=O)N3CCC2 | -19.5
35 | CSc1ccc(S(=O)(=O)NCC(=O)OCC(=O)N2CC(C)CC(C)C2)cc1[N+](=O)[O-] (stereo not shown) | 12.5
36 | O=C(NCCCN1CCOCC1)c1ccc2c(=O)n(Cc3ccccc3)c(=S)[nH]c2c1 | 9.4
37 | O=[N+]([O-])c1ccccc1CNc1ccc(F)c(Cl)c1 | 6.09
38 | O=C(Cn1nc(Cc2cccnc2)c2ccccc2c1=O)N1CCC2(CC1)OCCO2 | 0.907
39 | O=C(NCc1ccco1)Oc1ccccc1 | 8.55
40 | Cc1ccc2[nH]c(=O)c(Cc3ccccc3)c(O)c2c1 | 11.8
41 | Cc1ccc(Nc2cc(C)c3c(O)cccc3n2)cc1C.Cl | 15
42 | O=C(NC12CC3CC(CC(C3)C1)C2)c1cc(F)c(F)cc1Cl | 13.2
43 | Cc1ccc(S(=O)(=O)NC(C)(C)CSc2nnc(N)s2)cc1 | 3.66
44 | Cc1c(C(C)(C)O)[nH]c2ccc(C#N)cc12 | 18.1

Row | Structure (SMILES) | hERG current change (%, negative = inhibition) at 1uM [%]
45 | Cc1ccc(NC(=O)CN(C)C(=O)c2n[nH]c(=O)c3ccccc23)cc1 | 3.02
46 | Cc1ccc(N(CC(=O)NCc2ccccc2Cl)S(=O)(=O)c2cccs2)cc1 | 11.5
47 | O=C(CSc1nnc(CNC(=O)c2ccccc2)o1)NCc1ccc(F)cc1 | 12
48 | COc1cccc(-c2nc(C(N)=O)c3[nH]c(=O)n(-c4cccc(Cl)c4)c3n2)c1OC | 6.22
49 | Nc1cc(N)nc(SCC(=O)c2ccc3c(c2)NC(=O)CO3)n1 | 15.8
50 | Cc1cc(=O)[nH]c(N/N=C/c2ccccn2)n1 | 11.5
51 | COc1ccc(-c2cc(-c3ccccc3)c(C#N)c(S(C)(=O)=O)n2)cc1 | -13.2
52 | O=C(CCS(=O)(=O)c1ccc(Cl)cc1)Nc1ccc(N2CCOCC2)cc1 | 2.82
53 | COc1coc(C(O)CN)cc1=O (stereo not shown) | 10.2
54 | Cc1ccc(NC(=O)C/C(N)=N/O)cc1Cl | 9.8
55 | COc1cccc(N(CC(=O)Nc2ccccc2C)S(C)(=O)=O)c1 | 7.72
56 | Cc1ccc(C(=O)CSc2nnc3c4ccccc4nc(Cc4ccccc4)n23)cc1 | 10.8
57 | CC(C)(C)c1cc(CCC(=O)NCc2ccncc2)cc(C(C)(C)C)c1O | 5.65
58 | COC(=O)c1sccc1NC(=O)CSc1nnnn1-c1ccccc1C | 6.69
59 | COc1ccc(NC(=S)N2CCN(C(=O)C3CCCO3)CC2)cc1 (stereo not shown) | 0.786
60 | Clc1ccccc1Cc1noc(CN2CCN(Cc3ccccn3)CC2)n1 | 11
61 | CNC(=S)Nc1cccc(S(=O)(=O)NC2=NCCC2)c1 | -5.3
62 | C#CCOc1ccc(/C=C2\SC(=S)N(Cc3cccnc3)C2=O)cc1 | 19.2
63 | O=C(CCCN=C1NS(=O)(=O)c2ccccc21)OCc1ccccc1 | -14.4
64 | CCn1c(=O)c([N+](=O)[O-])c(NC2CCS(=O)(=O)C2)c2ccccc21 (stereo not shown) | 8.5
65 | OCCCN=C1CCCc2c1[nH]c1ccc(Cl)cc21 | -0.96
66 | CC1=CCC(C(=O)O)C(C(=O)Nc2nc3ccc(S(C)(=O)=O)cc3s2)C1 (stereo not shown) | 12.4

Row | Structure (SMILES) | hERG current change (%, negative = inhibition) at 1uM [%]
67 | Cn1c(CNS(=O)(=O)c2cccc(Cl)c2)cc(=O)n(C)c1=O | 15.7
68 | COc1ccc(CN2CCNCC2)c(OC)c1OC.Cl | 16.3
69 | CCc1c(C(=O)NNC(=S)NCC(C)C)csc1C | 2.49
70 | Cc1nn(CC(=O)N/N=C/c2ccc3c(c2)OCO3)c(C)c1Br | 15.2
71 | S=C(Nc1ccc(Cl)cc1)N(CCCN1CCOCC1)Cc1cccs1 | -4.13
72 | CCOc1ccc(NC(=O)Nc2cc(C)ccc2F)cc1 | -5.76
73 | O=C(NCCc1csc(-c2cccnc2)n1)c1c(F)cccc1F | 15.6
74 | COc1ccc(OC)c(CN2CCCC(C(=O)N3CCCCC3)C2)c1.O=C(O)C(=O)O (stereo not shown) | -4.96
75 | CSc1cccc(NC(=O)CN(c2cccc(C)c2)S(C)(=O)=O)c1 | -12.9
76 | Cc1ccc(C2C(C(=O)c3cc4ccccc4o3)=C(O)C(=O)N2CCN2CCOCC2)cc1 (stereo not shown) | 25.1
77 | CC(=O)c1c(C)nc(-c2ccc(OCC(=O)Nc3cccc(C)c3C)cc2)n1O | 7.08
78 | O=C(O)c1cc(N/N=C/c2ccc(-c3ccc(F)cc3)o2)ccc1Cl | 8.72
79 | CCc1cc(=O)[nH]c(SCCc2ccccc2)n1 | 10.3
80 | O=C(COC(=O)C1CCC1)Nc1ccc(Oc2ccccc2)cc1 | 12.5
81 | O=C(CCc1nc(-c2ccccc2F)no1)NCCN1CCN(Cc2ccccc2)CC1 | -15.5
82 | Cc1ccc(NS(=O)(=O)c2ccc(NC(=O)CN(c3cc([N+](=O)[O-])ccc3C)S(C)(=O)=O)cc2)c(C)c1 | -11.1
83 | CN1CCN(c2ccc(C=O)cc2)CC1 | -1.88
84 | Cc1c(C#N)c(N=CN(C)C)c(C(=O)c2ccccc2)n1-c1ccc(Br)cc1 | -5.19
85 | COc1cc(-c2nc3cc(C)ccn3c2NC2CCCCC2)ccc1-c1ccc(C(C)=O)cc1.O=C(O)C(F)(F)F | 2.27
86 | CC(C)OC(=O)/C(C#N)=C/c1c[nH]c2ccccc12 | 12
87 | Nc1cccc(/C=C/c2ccncc2)c1 | 10.9
88 | COc1ccc(-c2nn(-c3ccccc3)cc2C(=O)NC(=S)NNC(=O)c2ccncc2)cc1 | 11.2
